Laboratory results: PubChem BioAssay AID624171 (National Center for Advancing Translational Sciences (NCATS), 2012)
The campaign covered roughly 410,000 compounds. About 1,200 (0.29%) were called active. Inconclusive results, whose numbers are uncertain, are shown with a selection of clear calls. Calls come from the whole dose curve; as a rule, active = well fitted activation curve with a large enough effect; inconclusive = small, poorly fitted or top-dose-only effect; inactive = flat fitted curve, though single readings scatter. Potencies of inconclusive entries are doubtful fits and often do not repeat.
Potency is the fitted concentration of half-maximal effect; tags give direction and shape of the fitted curve.

Assay: qHTS of Nrf2 Activators; note: nearly all actives have a fitted effect of over 65% in size; for activation: % of control where 0% means no effect
Details: AREc32 ARE-luciferase reporter (MCF7-derived line), luminescence, 24 h; activation: at 46.1 µM (top of the series)
Outline: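 ARE-driven firefly luciferase activity in AREc32 cells measured after a 24 hr compound exposure at 37 deg C, using Steady-Glo reagent and a 30 min room-temperature hold.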
In the case of `C/C(=N\NC(=O)C(O)c1ccccc1)c1ccc(Br)s1` (stereo not drawn), the Potency is reported as inconclusive: 12.6 µM [activator, single point]. In the case of `O=C(c1ccc2c3c(cccc13)CC2)C1CCCN(Cc2ccccn2)C1` (stereo not drawn), the Potency is reported as “inactive”. With `COc1ccccc1N(/N=C1\Sc2ccccc2C1=O)C(C)=O` the Potency was active: 14.1 µM. For `CSc1ccccc1-c1nnc(-c2ccccc2)o1`, the Potency was inconclusive: 7.08 µM [activator, partial curve]. In the case of `COc1ccc2nc(Sc3c([N+](=O)[O-])nc(C)n3Cc3ccccc3)[nH]c2c1`, the Potency is reported as inconclusive: 17.8 µM [activator, single point]. For `COc1ccccc1NC(=O)C(=O)N/N=C/c1cccs1`, the Potency was active: 11.2 µM. With `COc1ccc(OCc2n(CC(=O)OC3CC(C)CCC3C(C)C)c3ccccc3[n+]2C)cc1` (stereo not drawn) the Potency was “inactive”. For `Cc1ccc2nc(N(CCN(C)C)C(=O)/C=C/c3cccs3)sc2c1`, the Potency was inconclusive: 5.62 µM [activator, full curve]. In the case of `COc1ccc(NC(=O)CCSc2nc(C)cs2)cc1`, the Potency is reported as “inactive”. In the case of `COC(=O)/C=C1/S/C(=N/N=C/c2ccco2)NC1=O`, the Potency is reported as active: 10 µM. For `O=C(NNC1=Nc2ccccc2SC1)c1cccc([N+](=O)[O-])c1`, the Potency was “inactive”. For `O=C(N/N=C/C=C\c1ccco1)c1ccccn1`, the Potency was inconclusive: 11.2 µM [activator, partial curve, poor fit]. In the case of `C(=C\c1sc(Nc2ccccc2)n[n+]1-c1ccccc1)/c1ccccc1`, the Potency is reported as inconclusive: 11.2 µM [activator, partial curve]. For `COCCn1c(-c2ccc(-c3ccccc3Cl)o2)nc2c1c(=O)[nH]c(=O)n2CC(C)C`, the Potency was “inactive”. For `CCOc1ccc(C(=O)/C=C/c2ccc(OC)c(OC)c2)cc1`, the Potency was inconclusive: 31.6 µM [activator, single point]. In the case of `CCOC(=O)c1sc(Nc2nc(OC)cc(OC)n2)nc1C`, the Potency is reported as inconclusive: 11.2 µM [activator, partial curve]. In the case of `CN1CCN(C(=O)CCN2C(=O)/C(=C\c3ccc(F)cc3)SC2=S)CC1`, the Potency is reported as inconclusive: 11.2 µM [activator, partial curve, poor fit]. In the case of `O=C(Nc1ccc2c(c1)OCCO2)NC1(C(F)(F)F)Oc2ccccc2O1`, the Potency is reported as inconclusive: 22.4 µM [activator, single point]. In the case of `NC(=O)c1ccccc1NC(=S)NC(=O)c1ccc(Br)o1`, the Potency is reported as active: 14.1 µM. In the case of `Cc1cc(C(=O)Nc2ccccc2[N+](=O)[O-])cs1`, the Potency is reported as active: 11.2 µM. For `Cc1nc2sc(C(=O)c3ccccc3)c(N)c2c2c1CCCC2`, the Potency was inconclusive: 5.62 µM [activator, full curve, poor fit]. In the case of `O=C(CC(Nc1cccc(Cl)c1Cl)C(=O)O)c1ccccc1` (stereo not drawn), the Potency is reported as inconclusive: 28.2 µM [activator, single point]. In the case of `Cc1cc2c(NC(=O)Nc3ccc(F)cc3)cccc2nn1`, the Potency is reported as inconclusive: 14.1 µM [activator, single point]. With `CCOC(=O)/C(=C\c1cccc(O)c1)c1nc2sc(C)c(C)c2c(=O)[nH]1` the Potency was inconclusive: 3.55 µM [activator, single point]. For `COc1cc(S(=O)(=O)NCc2ccccc2Cl)ccc1-n1cnnn1`, the Potency was “inactive”. With `COc1cc(-c2csc(N3CCOCC3)n2)cc(OC)c1OC` the Potency was “inactive”. For `O=C(/C=C/c1ccccn1)c1cc(Cl)cc(Cl)c1O`, the Potency was inconclusive: 3.98 µM [activator, full curve]. For `N#CCSc1ccc2nc(-c3ccccc3)cn2n1`, the Potency was inconclusive: 11.2 µM [activator, single point]. In the case of `O=C(/C=C/C=C/c1ccccc1)c1ccco1`, the Potency is reported as active: 11.2 µM. In the case of `O=C(NCCc1ccc(Cl)cc1)c1cc2c(s1)-c1ccccc1OC2`, the Potency is reported as “inactive”. With `CCc1ccc(C(=O)/C=C/c2ccc([N+](=O)[O-])o2)cc1` the Potency was inconclusive: 28.2 µM [activator, single point]. For `O=[N+]([O-])c1ccc(Sc2cc[n+]([O-])c3ccccc23)c([N+](=O)[O-])c1`, the Potency was inconclusive: 6.31 µM [activator, partial curve, poor fit]. In the case of `COc1ccc(N/N=C(C)/C(=N/O)C(=O)Nc2ccccc2)cc1`, the Potency is reported as inconclusive: 35.5 µM [activator, partial curve, poor fit]. For `Oc1cc2c(cc1O)[C@@H](c1ccccc1)CNCC2`, the Potency was inconclusive: 31.6 µM [activator, single point]. For `O=C(NC12CC3CC(CC(C3)C1)C2)c1ccc([N+](=O)[O-])o1`, the Potency was inconclusive: 3.55 µM [activator, single point]. With `N#CC1=C(N)C(C#N)(C#N)C(c2cccnc2)C2CC(c3ccccc3)CC=C12` (stereo not drawn) the Potency was inconclusive: 20 µM [activator, single point]. For `O=C(/C=C/c1ccc(Cl)cc1)c1cccnc1`, the Potency was inconclusive: 35.5 µM [activator, partial curve, poor fit]. In the case of `COc1cccc(C=Nc2cc(C(C)C)c(O)cc2C)c1O`, the Potency is reported as inconclusive: 20 µM [activator, single point]. With `O=C(Nc1ccc2c(c1)OCO2)c1ccc(Cl)c(S(=O)(=O)N2CCOCC2)c1` the Potency was “inactive”. With `CCCCc1nn2c(=O)cc(COC(=O)CNC(=O)COc3ccc(C)cc3)nc2s1` the Potency was “inactive”. With `CC(C)NC(=O)CSc1c2c(nc3ccccc13)CCCC2` the Potency was inconclusive: 25.1 µM [activator, single point]. In the case of `CCc1ccc(CCOc2ccc(CC3SC(=O)NC3=O)cc2)nc1` (stereo not drawn), the Potency is reported as “inactive”. For `O=C(c1ccc([N+](=O)[O-])o1)N1CCc2ccccc21`, the Potency was inconclusive: 4.47 µM [activator, single point]. In the case of `COCCn1c(C(F)(F)F)ccc(NC(=O)c2ccccc2)c1=O`, the Potency is reported as inconclusive: 2.51 µM [activator, full curve, poor fit]. In the case of `COc1ccc(OC)c(NC(=O)C(C)n2c(=O)c(-c3ccccc3NC(C)=O)nc3ccccc32)c1` (stereo not drawn), the Potency is reported as “inactive”. With `CCOC(=O)C(=CNNc1ccsc1C(=O)OC)C(=O)OCC` the Potency was inconclusive: 17.8 µM [activator, single point]. For `O=C1/C(=C\c2ccco2)NC(=S)N1c1ccccc1`, the Potency was active: 8.91 µM. With `COc1ccccc1C(=O)COC(=O)/C=C/c1ccccc1` the Potency was inconclusive: 22.4 µM [activator, single point]. With `Oc1sc(C=Nc2ccccc2)c2ccccc12` the Potency was inconclusive: 11.2 µM [activator, partial curve, poor fit]. For `COC(=O)c1sccc1NC(=O)/C=C\c1ccc(Cl)cc1Cl`, the Potency was inconclusive: 15.8 µM [activator, partial curve, poor fit]. For `Cc1ccc(-n2c(=O)c3oc4ccccc4c3n(Cc3cccc(F)c3)c2=O)cc1C`, the Potency was “inactive”. In the case of `COc1ccc(/C=C/C(=O)C2CC2)cc1Cn1nc(C)c([N+](=O)[O-])c1C`, the Potency is reported as inconclusive: 17.8 µM [activator, single point]. In the case of `O=C(CSc1nnc(-c2ccco2)c(-c2ccco2)n1)c1ccccc1`, the Potency is reported as inconclusive: 2.51 µM [activator, full curve, poor fit]. With `CC(=O)n1cc(N(C(=O)CCl)c2ccc(C)cc2)c2ccccc21` the Potency was inconclusive: 5.62 µM [activator, single point]. For `CC(=NNC(=S)N1CC2CCC(CC2)C1)c1cnccn1`, the Potency was inconclusive: 22.4 µM [activator, single point]. With `COc1ccc(O)c(-c2cc(-c3ccccc3Cl)[nH]n2)c1` the Potency was inconclusive: 2.82 µM [activator, full curve, poor fit]. For `CCc1nc(SCC(=O)Nc2ccc(N(C)C)cc2)n[nH]1`, the Potency was inconclusive: 31.6 µM [activator, single point]. For `COc1cc2oc3ccccc3c(=O)c2cc1OC`, the Potency was active: 10 µM. In the case of `COc1ccc(C(C)NC(=O)Nc2ccc(C(C)=O)cc2)cc1OC` (stereo not drawn), the Potency is reported as “inactive”. For `CCC1C/C(=C/c2cccs2)C(=O)/C(=C/c2cccs2)C1` (stereo not drawn), the Potency was active: 5.62 µM. With `O=C1c2cccc(OCC(=O)N3N=C(c4cccs4)CC3c3ccc(F)cc3)c2CCN1Cc1cccnc1` (stereo not drawn) the activation was inactive: -0.935% [at 9.22 µM]. With `N#Cc1cccc(NC(=O)Nc2cccs2)c1` the Potency was inconclusive: 20 µM [activator, single point]. With `CCn1c(/C=C/c2ccccc2Cl)nc2ccccc2c1=O` the Potency was inconclusive: 17.8 µM [activator, partial curve, poor fit]. For `COc1cc2c(cc1OC)-c1cc(OCCN3CCOCC3)nc(=O)n1CC2`, the Potency was inconclusive: 20 µM [activator, single point]. For `CCc1ccc(C(=O)c2cnc3ccc(F)cc3c2S(=O)(=O)c2ccccc2)cc1`, the Potency was inconclusive: 15.8 µM [activator, single point]. For `CCOC(=O)C1C(=O)C=C(/C=C/c2ccc(N(C)C)cc2)CC1c1ccccc1` (stereo not drawn), the Potency was “inactive”. With `Oc1ccccc1C=NNC(=S)NC1CC2C=CC1C2` (stereo not drawn) the Potency was inconclusive: 3.16 µM [activator, single point]. In the case of `CC1=C(C(=O)N2CCOCC2)C(c2ccc(O)cc2)NC(=S)N1` (stereo not drawn), the Potency is reported as “inactive”. For `COc1cc(/C=C2\SC(c3ccccc3)=NC2=O)cc(Cl)c1O`, the Potency was inconclusive: 15.8 µM [activator, single point]. In the case of `NC(=O)C1CCN(CC(=O)Nc2ccccc2C(=O)NC2CC2)CC1`, the Potency is reported as “inactive”. With `COCc1[nH]nc2c1C(c1cc(OC)c(O)c(OC)c1)C(C#N)=C(N)O2` (stereo not drawn) the Potency was “inactive”. For `COc1ccc(/C=C/c2nnc(NC(=O)c3ccco3)s2)cc1`, the Potency was inconclusive: 17.8 µM [activator, single point]. For `Cc1ccc(/C=C2\CCC(C3CCCC3)C2=O)cc1` (stereo not drawn), the Potency was “inactive”.
